No constants are given. Whether binding was seen depends on the method and setting.
T1: Beauveria bassiana photolyase Phr1 (B. bassiana) (UniProt J4KQS2)
T1 sequence: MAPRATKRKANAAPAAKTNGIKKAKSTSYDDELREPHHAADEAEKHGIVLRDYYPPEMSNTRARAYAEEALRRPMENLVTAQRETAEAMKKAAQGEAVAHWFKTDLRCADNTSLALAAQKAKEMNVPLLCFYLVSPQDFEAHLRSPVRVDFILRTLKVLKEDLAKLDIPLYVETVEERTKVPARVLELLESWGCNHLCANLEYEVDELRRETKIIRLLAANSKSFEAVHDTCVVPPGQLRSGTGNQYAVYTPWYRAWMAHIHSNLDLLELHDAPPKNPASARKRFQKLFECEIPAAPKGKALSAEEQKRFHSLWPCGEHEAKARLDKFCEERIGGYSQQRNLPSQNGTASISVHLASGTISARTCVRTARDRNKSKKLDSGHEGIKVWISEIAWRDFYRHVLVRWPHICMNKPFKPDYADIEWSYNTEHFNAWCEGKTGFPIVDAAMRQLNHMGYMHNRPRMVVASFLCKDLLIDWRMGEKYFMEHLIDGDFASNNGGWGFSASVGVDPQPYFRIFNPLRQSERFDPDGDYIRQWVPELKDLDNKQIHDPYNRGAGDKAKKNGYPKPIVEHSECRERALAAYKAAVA

T2: Beauveria bassiana photolyase Phr2 (B. bassiana) (UniProt J4WK53)
T2 sequence: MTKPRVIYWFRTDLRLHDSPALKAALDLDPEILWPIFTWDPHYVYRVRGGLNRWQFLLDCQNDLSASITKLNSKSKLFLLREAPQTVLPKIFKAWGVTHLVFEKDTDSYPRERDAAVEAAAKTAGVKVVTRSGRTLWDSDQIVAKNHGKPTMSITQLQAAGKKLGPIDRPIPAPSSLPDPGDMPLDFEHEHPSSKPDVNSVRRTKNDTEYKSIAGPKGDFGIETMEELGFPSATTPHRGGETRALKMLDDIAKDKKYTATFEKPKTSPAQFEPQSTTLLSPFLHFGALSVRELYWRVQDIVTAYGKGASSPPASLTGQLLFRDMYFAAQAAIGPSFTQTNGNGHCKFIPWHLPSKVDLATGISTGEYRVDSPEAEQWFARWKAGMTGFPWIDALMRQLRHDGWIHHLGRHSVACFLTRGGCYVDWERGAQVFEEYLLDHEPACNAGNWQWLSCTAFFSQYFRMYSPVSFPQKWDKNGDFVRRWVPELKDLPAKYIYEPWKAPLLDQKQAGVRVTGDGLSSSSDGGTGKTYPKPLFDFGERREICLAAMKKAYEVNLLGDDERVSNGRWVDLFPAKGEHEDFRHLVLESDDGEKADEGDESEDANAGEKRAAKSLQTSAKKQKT


Experiments:
[1] = target: T1, Beauveria bassiana photolyase Phr1 (B. bassiana); test: two-hybrid; ORFs in pGADT7 (AD, prey; strain Y187) or pGBKT7 (BD, bait; strain Y2HGold), pairwise mating; diploids grown 3 days at 30 °C on double-dropout (SDM/-Leu/-Trp/X-α-Gal/AbA) and quadruple-dropout (SDM/-Leu/-Trp/-Ade-His/X-α-Gal/AbA) medium; growth on quadruple dropout read as interaction
[2] = target: T2, Beauveria bassiana photolyase Phr2 (B. bassiana); test: as above

binding [1]	binding [2]	Binder
no binding	no binding	Beauveria bassiana white collar protein WC2 (protein, UniProt J5JYA0 1-499) MSQGHAPPPNGYSAYNDLNLAFLSDASAPQHMMMSSAVDDPGPYNANEGMRFTDAQLFGEFTSDLGMSGFGSADASLDSFNPDFALDAMLGNSHANSALDPPSNNIPGGGPSPVGGPPQPMQLTNPGTSTLNEFTKRRNWPAKIVEELRDWLHILDANGRLKFVSRSVAEVAGYAEDDLRDIFLKDLIHPDDQGLFVAEFNESIASGNPLRIFYRLKKKDGVYGIFEAVGHAHIAAAKFAPNPSNQSPFCQAVFMVARPYPTRNAALLDSFLEHKIENERLKRRIAELQREEQADAHDACQQLSQDMSQSAATVSNMTFSDLTGSSATAQHGFASADTTMAGTSDSLEFNGALTRENLEGAATAAHRDSLRDKMARFEGGSHVDTIEMLTGLRYMEGERSRGITTGNTSPALIKGDAGIAIPKDRDGRLGEKKKKIKVSEEYVCTDCGTLDSPEWRKGPSGPKTLCNACGLRWAKKEKKRTKLAGASQPTPPTEFGAGS
no binding	no binding	Beauveria bassiana white collar protein WC1 (protein, UniProt J5J1K4 1-963) MEGYYPPNHLPPREQQRQQQNNPNQQQQQQQQQQQQQQMPPGMPRSNTFNNQMMGNPTLLQRRASASIGFAPQQLSDAVDARRLSLAADRVAMNPPPATGSSNFMGFQPSPQQLNNFSMLDASNMGNIIADGNSFPGISPDAMGNLVSAQFANINMGAMFSNADPGSSAVLEGQISPNAMQLSITSNETMQFNNGTQYNAFTNPQDNTVPAPQQMNQAKTAQDPSHDARTGASAPAVDQAIQSLPRHELSAGSAVSPAQEMAPSTGATQPSTSSVATTPNATANLKEPREKSIYSKSGFDMLKALWLVASRKNPKIHLGAVDMSCAFVVCDVSMNDCPIIYVSDNFQNLTGYSSHDIVGQNCRFLQAPDGKVEAGTKREFVDNGTVFNLKKMIQERQEVQQSLINYRKGGKPFLNLLTMIPIPWDTDEVRYFIGFQIDLVECPDAIAGSEFGGVAVNYKHSDIGQYIWTPPSSAFWEADNGQTLGVDDVSTILQQFNAKGIASDWHRQSWDKMLLENCDDVIQVLSLKGLFLYLSPACKRVLEYDAAELVGNSLSSICHPSDIVPVTRELKDATTGDQVNIVFRIRRKQSGYTWFESHGSLYVEQGKGRKCIILVGRKRPVFSISRRNIESNGGIGDSEMWTKLSTSGTFLYVSSNVRSLLDLQPESLVATSIQELMRKDSRPEFGRTLEKARRGKIVTCKHEVLNRRGQGLQAQTTLYPGDAIEGQKPSFLLAQTKLLKASSRTLAPATSTAGSNASRSVHGQISQPAGGGLGHGNQEEALASDDNIFDELRTTKCSSWQFELRQMEKVNRILAEELGGLLSSKKKRKRRKGVGNVIRDCANCHTRNTPEWRRGPSGQRDLCNSCGLRWAKQMGRVSPRNSVRNGDTQSGKSASPIHSSPMHKEVPASANTPDHQVKRSATTDVPATVDAISPPTTNQQATRAASAGTVMASIQEERETSLP
